Results are given in words; binding and its absence hold for the method and conditions named. In cells and extracts the contact can be indirect. Some entries that bind do so weakly or less than the wild type. Tags and fused reporters may be left off the sequences shown.
Assays:
GST-TR4-FL [1] = target: T1, GST-TR4-FL (UniProt P49116); assay: condition: only in the presence of non-radiolabeled TR4; pull-down; GST pull-down of in vitro translated ^35S-labeled protein by purified GST-TR4 on beads, in the absence or presence of a non-radiolabeled in vitro translated competitor (TR4, Slug or Slug-2); only the target purified
T1 sequence: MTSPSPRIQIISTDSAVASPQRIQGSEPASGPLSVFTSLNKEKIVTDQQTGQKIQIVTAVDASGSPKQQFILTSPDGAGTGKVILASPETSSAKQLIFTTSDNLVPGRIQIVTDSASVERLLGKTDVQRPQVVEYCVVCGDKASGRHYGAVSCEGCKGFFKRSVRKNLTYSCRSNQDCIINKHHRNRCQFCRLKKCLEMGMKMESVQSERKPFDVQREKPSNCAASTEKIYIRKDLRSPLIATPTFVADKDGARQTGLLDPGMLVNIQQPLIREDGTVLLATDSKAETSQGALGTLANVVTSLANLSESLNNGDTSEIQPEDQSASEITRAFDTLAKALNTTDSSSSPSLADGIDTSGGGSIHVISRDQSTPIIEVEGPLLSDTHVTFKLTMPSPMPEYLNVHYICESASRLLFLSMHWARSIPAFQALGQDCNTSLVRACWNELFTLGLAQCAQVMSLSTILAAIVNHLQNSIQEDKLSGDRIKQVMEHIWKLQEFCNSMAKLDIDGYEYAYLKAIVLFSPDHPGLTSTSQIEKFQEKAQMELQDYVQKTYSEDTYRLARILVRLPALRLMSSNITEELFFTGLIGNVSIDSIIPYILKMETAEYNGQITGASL

GST-TR4-∆C [aa 1–348] [2] = target: T2, GST-TR4-∆C [aa 1–348] (UniProt P49116); assay: as above
T2 sequence: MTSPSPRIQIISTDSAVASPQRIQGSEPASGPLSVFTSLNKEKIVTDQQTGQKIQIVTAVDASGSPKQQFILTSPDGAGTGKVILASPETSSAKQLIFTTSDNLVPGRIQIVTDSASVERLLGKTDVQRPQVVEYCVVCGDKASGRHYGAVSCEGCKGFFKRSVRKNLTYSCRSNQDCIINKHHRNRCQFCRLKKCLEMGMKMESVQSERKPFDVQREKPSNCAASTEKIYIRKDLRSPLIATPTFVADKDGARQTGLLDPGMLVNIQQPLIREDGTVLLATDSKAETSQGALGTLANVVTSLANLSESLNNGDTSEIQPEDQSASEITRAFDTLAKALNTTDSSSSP

GST-TR4-FL [3] = target: T1, GST-TR4-FL; assay: pull-down; GST pull-down of in vitro translated ^35S-labeled protein by purified GST-TR4 on beads, in the absence or presence of a non-radiolabeled in vitro translated competitor (TR4, Slug or Slug-2); only the target purified
GST-TR4-∆C [aa 1–348] [4] = target: T2, GST-TR4-∆C [aa 1–348]; assay: as above
GST-TR4-FL [5] = target: T1, GST-TR4-FL; assay: pull-down; purified GST fusion protein on glutathione-Sepharose-4B beads incubated 12 h at 4 °C with 5 μL of in vitro translated ^35S-labeled protein in GST binding buffer (50 mM HEPES pH 7.6, 50 mM NaCl, 0.1% Nonidet P-40, 5 mM EDTA, 10% glycerol); washes with 500 mM NaCl; SDS-PAGE and autoradiography; only the target purified
GST-TR4-∆C [aa 1–348] [6] = target: T2, GST-TR4-∆C [aa 1–348]; assay: as above

- binding (GST-TR4-FL [1]): no binding
- binding (GST-TR4-∆C [aa 1–348] [2]): no binding
- binding (GST-TR4-FL [3]): binds
- binding (GST-TR4-∆C [aa 1–348] [4]): binds
- binding (GST-TR4-FL [5]): binds
- binding (GST-TR4-∆C [aa 1–348] [6]): binds
B1: in vitro translated Slug (protein, UniProt P97469 1-269)
chain: MPRSFLVKKHFNASKKPNYSELDTHTVIISPYLYESYPIPVIPKPEILTSGAYSPITVWTSSAAPLHSPLPSGLSPLTGYSSSLGRVSPPPSSDTSSKDHSGSESPISDEEERLQPKLSDPHAIEAEKFQCNLCNKTYSTFSGLAKHKQLHCDAQSRKSFSCKYCDKEYVSLGALKMHIRTHTLPCVCKICGKAFSRPWLLQGHIRTHTGEKPFSCPHCNRAFADRSNLRAHLQTHSDVKKYQCKNCSKTFSRMSLLHKHEESGCCVAH
modifications: ^35S label (non-radiolabeled where used as competitor)
